# Assays:
# HDAC6 = molecular target: T1, HDAC6 (Homo sapiens, UniProt Q9UBN7); assay: biochemical
# T1 sequence (Q9UBN7 1-1215): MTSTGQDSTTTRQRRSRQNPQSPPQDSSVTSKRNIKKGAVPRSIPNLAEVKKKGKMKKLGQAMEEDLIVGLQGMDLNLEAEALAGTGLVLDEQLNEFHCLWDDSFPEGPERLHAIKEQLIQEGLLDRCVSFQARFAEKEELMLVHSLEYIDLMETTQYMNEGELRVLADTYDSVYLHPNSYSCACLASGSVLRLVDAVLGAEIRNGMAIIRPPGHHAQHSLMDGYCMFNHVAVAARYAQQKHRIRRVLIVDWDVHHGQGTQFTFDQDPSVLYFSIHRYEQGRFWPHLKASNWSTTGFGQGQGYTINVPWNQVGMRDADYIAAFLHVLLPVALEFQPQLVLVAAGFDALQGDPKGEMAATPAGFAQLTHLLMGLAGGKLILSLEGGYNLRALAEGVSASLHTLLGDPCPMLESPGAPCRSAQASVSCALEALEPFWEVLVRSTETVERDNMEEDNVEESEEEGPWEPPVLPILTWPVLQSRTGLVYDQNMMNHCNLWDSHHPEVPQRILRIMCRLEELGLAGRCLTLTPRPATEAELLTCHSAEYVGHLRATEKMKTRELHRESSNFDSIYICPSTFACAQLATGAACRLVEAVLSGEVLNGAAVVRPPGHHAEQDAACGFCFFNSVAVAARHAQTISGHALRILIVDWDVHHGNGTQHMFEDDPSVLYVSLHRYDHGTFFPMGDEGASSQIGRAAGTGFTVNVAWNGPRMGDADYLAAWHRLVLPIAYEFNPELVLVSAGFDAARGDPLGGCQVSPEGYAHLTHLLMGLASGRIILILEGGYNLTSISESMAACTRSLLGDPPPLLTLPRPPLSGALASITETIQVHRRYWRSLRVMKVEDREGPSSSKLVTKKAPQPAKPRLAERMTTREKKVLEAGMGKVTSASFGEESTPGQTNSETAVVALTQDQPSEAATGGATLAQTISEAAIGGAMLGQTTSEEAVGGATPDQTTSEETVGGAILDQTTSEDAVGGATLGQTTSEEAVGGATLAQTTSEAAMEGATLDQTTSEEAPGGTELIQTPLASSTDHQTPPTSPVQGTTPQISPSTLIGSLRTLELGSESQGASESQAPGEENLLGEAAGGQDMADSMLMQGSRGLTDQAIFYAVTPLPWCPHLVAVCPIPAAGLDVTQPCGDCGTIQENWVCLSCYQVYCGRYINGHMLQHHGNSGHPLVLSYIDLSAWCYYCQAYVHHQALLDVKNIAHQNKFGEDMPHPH
# HDAC1 = HDAC1 (Homo sapiens, UniProt Q13547); assay: biochemical
# WSU-DLCL-2 cells = assay: In vitro anti-proliferative assay (CCK8), WSU-DLCL-2; details: Homo sapiens, WSUDLCL2, 72 h, read-out: IC50 WSU-DLCL-2
# K562 cells = assay: In vitro anti-proliferative assay (CCK8), K562; details: Homo sapiens, K562, 72 h, read-out: IC50 K562
# HEL cells = assay: In vitro anti-proliferative assay (CCK8), HEL; details: Homo sapiens, 72 h, read-out: IC50 HEL
# Sequence of HDAC1 (Q13547 whole entry): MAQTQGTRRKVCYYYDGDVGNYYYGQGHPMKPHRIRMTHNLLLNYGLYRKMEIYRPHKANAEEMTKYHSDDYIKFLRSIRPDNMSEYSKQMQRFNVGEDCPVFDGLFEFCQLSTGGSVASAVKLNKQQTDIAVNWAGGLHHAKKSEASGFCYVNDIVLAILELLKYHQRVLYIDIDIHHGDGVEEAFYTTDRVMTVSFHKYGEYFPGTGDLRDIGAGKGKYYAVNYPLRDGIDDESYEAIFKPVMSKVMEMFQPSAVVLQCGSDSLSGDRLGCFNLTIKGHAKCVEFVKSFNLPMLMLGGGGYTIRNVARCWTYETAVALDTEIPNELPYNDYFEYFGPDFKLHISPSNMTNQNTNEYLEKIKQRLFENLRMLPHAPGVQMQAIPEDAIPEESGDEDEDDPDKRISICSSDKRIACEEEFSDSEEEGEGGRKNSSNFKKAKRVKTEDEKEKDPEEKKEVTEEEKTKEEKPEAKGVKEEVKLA
SMILES,melting point,IC50 (HDAC6),IC50 (HDAC1),also measured
"C=C[C@]1(C)CC[C@@H](C(=C)CN2CCN(C(=O)CCCCCCC(=O)NO)CC2)C[C@H]1C(=C)C [Compound 18f, N-hydroxy-8–(4-(2-((1R,3S,4S)-4-methyl-3-(prop-1-en-2-yl)-4-vinylcyclohexyl)allyl)piperazin-1-yl)-8-oxooctanamide]",144.3 to 144.9 °C,32 ± 9 nM,81 ± 8 nM,
"C=C[C@]1(C)CC[C@@H](C(=C)CNC(=O)CCCCCC(=O)NO)C[C@H]1C(=C)Cn1cccn1 [Compound 27b, N^1-(2-((1R,3R,4S)-3–(3-(1H-pyrazol-1-yl)prop-1-en-2-yl)-4-methyl-4-vinylcyclohexyl)allyl)-N^7-hydroxyheptanediamide]",47.3 to 49 °C,,,
"C=CC1(C)CCC(C(=C)C)CC1C(=C)C (stereo not drawn) [Compound 1, β-Elemene]",,,,IC50 (WSU-DLCL-2 cells): > 200000 nM; IC50 (K562 cells): > 200000 nM; IC50 (HEL cells): > 200000 nM
"C=C[C@]1(C)CC[C@@H](C(=C)CNC(=O)CCCCCCC(=O)NO)C[C@H]1C(=C)C [Compound 18c, N^1-hydroxy-N^8-(2-((1R,3S,4S)-4-methyl-3-(prop-1-en-2-yl)-4-vinylcyclohexyl)allyl)octanediamide]",58.6 to 59.3 °C,,,
"C=C[C@]1(C)CC[C@@H](C(=C)CNC(=O)CCCCCCC(=O)NO)C[C@H]1C(=C)Cn1cccn1 [Compound 27c, N^1-(2-((1R,3R,4S)-3–(3-(1H-pyrazol-1-yl)prop-1-en-2-yl)-4-methyl-4-vinylcyclohexyl)allyl)-N^8-hydroxyoctanediamide]",54.7 to 55.9 °C,,,IC50 (WSU-DLCL-2 cells): 2270 ± 300 nM; IC50 (K562 cells): 5600 ± 40 nM; IC50 (HEL cells): 6050 ± 240 nM
"C=C[C@]1(C)CC[C@@H](C(=C)CN2CCN(C(=O)CCCCC(=O)NO)CC2)C[C@H]1C(=C)C [Compound 18d, N-hydroxy-6–(4-(2-((1R,3S,4S)-4-methyl-3-(prop-1-en-2-yl)-4-vinylcyclohexyl)allyl)piperazin-1-yl)-6-oxohexanamide]",,532 ± 27 nM,900 ± 78 nM,
"C=C[C@]1(C)CC[C@@H](C(=C)CNC(=O)CCCCC(=O)NO)C[C@H]1C(=C)Cn1cccn1 [Compound 27a, N^1-(2-((1R,3R,4S)-3–(3-(1H-pyrazol-1-yl)prop-1-en-2-yl)-4-methyl-4-vinylcyclohexyl)allyl)-N^6-hydroxyadipamide]",65.6 to 66.8 °C,261 ± 4 nM,879 ± 56 nM,
C=C[C@]1(C)CC[C@@H](C(=C)Cn2cccn2)C[C@H]1C(=C)CNC(=O)CCCCCCC(=O)Nc1ccccc1N [Compound 41],,> 5000 nM,2130 ± 294 nM,
C=C[C@]1(C)CC[C@@H](C(=C)Cn2cccn2)C[C@H]1C(=C)CN1CCN(Cc2ccc(C(=O)NO)cc2)CC1 [Compound 43],103.2 to 105.3 °C,,,
"C=C[C@]1(C)CC[C@@H](C(=C)CN2CCN(C(=O)CCCCC(=O)NO)CC2)C[C@H]1C(=C)Cn1cccn1 [Compound 27d, 6–(4-(2-((1R,3R,4S)-3–(3-(1H-pyrazol-1-yl)prop-1-en-2-yl)-4-methyl-4-vinylcyclohexyl)allyl)piperazin-1-yl)-N-hydroxy-6-oxohexanamide]",71.7 to 72.2 °C,,,
"C=C[C@]1(C)CC[C@@H](C(=C)CNC(=O)CCCCC(=O)NO)C[C@H]1C(=C)C [Compound 18a, N^1-hydroxy-N^6-(2-((1R,3S,4S)-4-methyl-3-(prop-1-en-2-yl)-4-vinylcyclohexyl)allyl)adipamide]",95.6 to 96.7 °C,,,
C=C[C@]1(C)CC[C@@H](C(=C)CN2CCN(Cc3ccc(C(=O)NO)cc3)CC2)C[C@H]1C(=C)Cn1cccn1 [Compound 34],111.8 to 112.6 °C,,,
"C=C[C@]1(C)CC[C@@H](C(=C)CN2CCN(C(=O)CCCCCC(=O)NO)CC2)C[C@H]1C(=C)C [Compound 18e, N-hydroxy-7–(4-(2-((1R,3S,4S)-4-methyl-3-(prop-1-en-2-yl)-4-vinylcyclohexyl)allyl)piperazin-1-yl)-7-oxoheptanamide]",126.7 to 127.5 °C,,,
"C=C[C@]1(C)CC[C@@H](C(=C)CN2CCN(C(=O)CCCCCC(=O)NO)CC2)C[C@H]1C(=C)Cn1cccn1 [Compound 27e, 7–(4-(2-((1R,3R,4S)-3–(3-(1H-pyrazol-1-yl)prop-1-en-2-yl)-4-methyl-4-vinylcyclohexyl)allyl)piperazin-1-yl)-N-hydroxy-7-oxoheptanamide]",55.3 to 56.7 °C,,189 ± 26 nM,
"C=C[C@]1(C)CC[C@@H](C(=C)CNC(=O)CCCCCC(=O)NO)C[C@H]1C(=C)C [Compound 18b, N^1-hydroxy-N^7-(2-((1R,3S,4S)-4-methyl-3-(prop-1-en-2-yl)-4-vinylcyclohexyl)allyl)heptanediamide]",55.7 to 58.1 °C,,,IC50 (WSU-DLCL-2 cells): 2080 ± 220 nM; IC50 (K562 cells): 5160 ± 130 nM; IC50 (HEL cells): 2160 ± 160 nM

# Now from value to compound, other results behind:
melting point,IC50 (HDAC6),IC50 (HDAC1),SMILES,also measured
100.2 to 102.3 °C,> 5000 nM,> 5000 nM,"C=C[C@]1(C)CC[C@@H](C(=C)Cn2cccn2)C[C@H]1C(=C)CN1CCN(C(=O)CCCCC(=O)NO)CC1 [Compound 39d, 6–(4-(2-((1R,2S,5R)-5–(3-(1H-pyrazol-1-yl)prop-1-en-2-yl)-2-methyl-2-vinylcyclohexyl)allyl)piperazin-1-yl)-N-hydroxy-6-oxohexanamide]",
55.4 to 57.9 °C,,,"C=C[C@]1(C)CC[C@@H](C(=C)Cn2cccn2)C[C@H]1C(=C)CNC(=O)CCCCCCC(=O)NO [Compound 39c, N^1-(2-((1R,2S,5R)-5–(3-(1H-pyrazol-1-yl)prop-1-en-2-yl)-2-methyl-2-vinylcyclohexyl)allyl)-N^8-hydroxyoctanediamide]",
60.2 to 61.3 °C,,,"C=C[C@]1(C)CC[C@@H](C(=C)Cn2cccn2)C[C@H]1C(=C)CN1CCN(C(=O)CCCCCC(=O)NO)CC1 [Compound 39e, 7–(4-(2-((1R,2S,5R)-5–(3-(1H-pyrazol-1-yl)prop-1-en-2-yl)-2-methyl-2-vinylcyclohexyl)allyl)piperazin-1-yl)-N-hydroxy-7-oxoheptanamide]",
63.8 to 64.9 °C,20 ± 7 nM,136 ± 33 nM,"C=C[C@]1(C)CC[C@@H](C(=C)Cn2cccn2)C[C@H]1C(=C)CNC(=O)CCCCCC(=O)NO [Compound 39b, N^1-(2-((1R,2S,5R)-5–(3-(1H-pyrazol-1-yl)prop-1-en-2-yl)-2-methyl-2-vinylcyclohexyl)allyl)-N^7-hydroxyheptanediamide]",
61.7 to 63.3 °C,398 ± 41 nM,986 ± 13 nM,"C=C[C@]1(C)CC[C@@H](C(=C)Cn2cccn2)C[C@H]1C(=C)CNC(=O)CCCCC(=O)NO [Compound 39a, N^1-(2-((1R,2S,5R)-5–(3-(1H-pyrazol-1-yl)prop-1-en-2-yl)-2-methyl-2-vinylcyclohexyl)allyl)-N^6-hydroxyadipamide]",
